# Assay results reported in the RNAGym collection of RNA variant scans (doi:10.7554/elife.90254).
# Read counts are not given, so values of variants with three or more changes are uncertain.
# B1: LINE1-mini (parent)
# chain: GGCAGAGCUCAACACAGCGUGGCAAAGUGGCUGUGGCUAGACUGCC
# Variants of: B1
# Experiment: self-cleavage, relative activity (ratio to wild type); higher = more cleavage; in vitro, sequencing; the parent is a self-cleaving ribozyme
row,Variant,self-cleavage
1,GGCAGAGCUCAACACAGGGUGACAAAGUGGCUGUGUCUAGACUGCC [C18G G22A G36U],0.06
2,GGCAGAGCUCAACACAGGAUGGCAAAGUGGCUGUGGCUAGACCGCC [C18G G19A U43C],0.07
3,GGCAGAGCUCAACACAGAGUGGCAAAGUGGCUGUUGCUAUACUGCC [C18A G35U G40U],0.01
4,GGCAGAGCUCAACACAGAGUGGCAAAAUGGCUGUGGCUAGUCUGCC [C18A G27A A41U],1.21
5,GGCAGAGCUCAACACAGAGGGGCAAAGUUGCUGUGGCUAGACUGCC [C18A U20G G29U],1.55
6,GGCAGAGCUCAACACAGAGUGGCAAAGUGGCUGUGGCGAGCCUGAC [C18A U38G A41C C45A],0.04
7,GGCAGAGCUCAACACAGGGUGGCGAAUUGGCUGUGGCUAGACUGCC [C18G A24G G27U],0.34
8,GGCAGAGCUCAACACAGGGUGGAAAAGUUGCUGUGGCUAGACUGCC [C18G C23A G29U],2.15
9,GGCAGAGCUCAACACAGGGUGGCUAAGUGGCUGUGUCUAGACUGCG [C18G A24U G36U C46G],0.04
10,GGCAGAGCUCAACACAGAGCGGCAAAGUGGCUGUCGCUAGACGGCC [C18A U20C G35C U43G],0.01
11,GGCAGAGCUCAACACAGGUUGGCAAAGUGGCUGUGGCUAUACAGCC [C18G G19U G40U U43A],0.01
12,GGCAGAGCUCAACACAGAGUGGCAAAGUGGCUGUGGCAUGAGUGCC [C18A U38A A39U C42G],0
13,GGCAGAGCUCAACACAGGGUGCCAAACUGGCUGUGGCUAGACUGCC [C18G G22C G27C],0.49
14,GGCAGAGCUCAACACAGGCUGGCAAAGUGGCUGUGUCUAGACUGAC [C18G G19C G36U C45A],0.08
15,GGCAGAGCUCAACACAGAGUGGCAAAGUGGCUGUGACUAGAGUGCC [C18A G36A C42G],0.02
16,GGCAGAGCUCAACACAGAGCGGCAAAGUGGUUGUAGCUAGACUGAC [C18A U20C C31U G35A C45A],0.02
17,GGCAGAGCUCAACACAGGGUGACAAAGUGGCUGAGGCUAGACUGCA [C18G G22A U34A C46A],0
18,GGCAGAGCUCAACACAGGGUGCCAAAGUGGCUGUGGCUAGAAUGCC [C18G G22C C42A],0.04
19,GGCAGAGCUCAACACAGGCUGGCAAAGUGGCUGUGGCUAGACUCCC [C18G G19C G44C],0.91

row,Variant,self-cleavage
1,GGCAGAGCUCAACACAGAGUGGCAAAGUGGCUGUGGCAAGAUUGCC [C18A U38A C42U],0.06
2,GGCAGAGCUCAACACAGAGUGGCAAAGUGGCAGUGGCUAGAUUGCC [C18A U32A C42U],0.06
3,GGCAGAGCUCAACACAGAGUGGCAAAGGGGCUCUGGCUAGAAUGCC [C18A U28G G33C C42A],0
4,GGCAGAGCUCAACACAGAGUGGCAAAGUGGCAGUGGCAAGACUGCC [C18A U32A U38A],0.01
5,GGCAGAGCUCAACACAGAGUGGCAAAGUGGCUGUGGCACGACUGCC [C18A U38A A39C],0.89
6,GGCAGAGCUCAACACAGAGUGGCAAAAUGGCUGUGGCUACUCUUCC [C18A G27A G40C A41U G44U],0.04
7,GGCAGAGCUCAACACAGAGUGGCAAAGUGGCUGGGGCUAGAUUGCC [C18A U34G C42U],0.09
8,GGCAGAGCUCAACACAGAGUGGCAAAGUGGCUGUAGCUAGAGUGCC [C18A G35A C42G],0.03
9,GGCAGAGCUCAACACAGAGUGGCAAAGUGGCAGUGGCUACACUGCC [C18A U32A G40C],0.02
10,GGCAGAGCUCAACACAGAGUGGCAAAGUGGCUGCGGCUAGACUUCC [C18A U34C G44U],0.03
11,GGCAGAGCUCAACACAGGGUUGUAAAGUGUCUAUGGCUAGACUGCC [C18G G21U C23U G30U G33A],0.04
12,GGCAGAGCUCAACACAGGGUGGCAACGUGGCUGUGACUAGACUGCC [C18G A26C G36A],0.06
13,GGCAGAGCUCAACACAGAGUGGCAAAGUGGCUUGGGCUAGACUGCC [C18A G33U U34G],0
14,GGCAGAGCUCAACACAGAGUGGCAAAGUGACUGUGGCUAGACCGCC [C18A G30A U43C],0.06
15,GGCAGAGCUCAACACAGAGUGGCAAAGUGACUGUGGCUAGACAGCC [C18A G30A U43A],0.04
16,GGCAGAGCUCAACACAGAGUGGCAAAGUGGCUGUUGCUAGACUGAC [C18A G35U C45A],0.01
17,GGCAGAGCUCAACACAGAGUGGCAAAGUGGCUCUGGUUAGACUGCC [C18A G33C C37U],0.02
18,GGCAGAGCUCAACACAGAGUGGCAAAGGGGCUGUGGUUAGACUGCC [C18A U28G C37U],0.04
19,GGCAGAGCUCAACACAGAGCGGCAAAGUGCCUGUGGCUAGACUGCC [C18A U20C G30C],0.58

row,Variant,self-cleavage
1,GGCAGAGCUCAACACAGGGUAGCAAAGUGGCUGUGGCUGGACUGCC [C18G G21A A39G],0.1
2,GGCAGAGCUCAACACAGGGUGGCAUAGUGGCUGUGGCAAUACUGCC [C18G A25U U38A G40U],0.02
3,GGCAGAGCUCAACACAGGAUGGCAAAGUGGCGGUGGCUAGACUGCC [C18G G19A U32G],0.06
4,GGCAGAGCUCAACACAGAGUGGCAAACUGGUUGUGGCUAGACUGUC [C18A G27C C31U C45U],0.05
5,GGCAGAGCUCAACACAGGGUGGCAAAGUGGUUGUGGCUAGACUUCC [C18G C31U G44U],0.05
6,GGCAGAGCUCAACACAGGGUGGCACAGUGCCAGUGGCUAGACUGCC [C18G A25C G30C U32A],0.14
7,GGCAGAGCUCAACACAGGGUGACAAAGGGGCUGUGGCUAGACUGCC [C18G G22A U28G],0.07
8,GGCAGAGCUCAACACAGAGGGGCAAAGUGGCUGUGACUAGAUUGCC [C18A U20G G36A C42U],0.06
9,GGCAGAGCUCAACACAGGGUGGUAAAGUGCCUGUGGCUAUACUGCC [C18G C23U G30C G40U],0.08
10,GGCAGAGCUCAACACAGGGUGGCAAAGUGGCUGUGGACAGACUGCA [C18G C37A U38C C46A],0.04
11,GGCAGAGCUCAACACAGAGUGGCAAAGUGGCUGUGGCUAGACGGCA [C18A U43G C46A],0.03
12,GGCAGAGCUCAACACAGGGUAGCAAAGUGGCUGUGGCUAGACUGAC [C18G G21A C45A],0.18
13,GGCAGAGCUCAACACAGGGUCGCAAAGGGGCUGUGGCUAGACUGCC [C18G G21C U28G],0.37
14,GGCAGAGCUCAACACAGGGUGGCAGGGUGGCUGUGGCUAGACUGCC [C18G A25G A26G],0.09
15,GGCAGAGCUCAACACAGAGUGGCAAAGUGGCUGUGGCUAGACUCUC [C18A G44C C45U],0.01
16,GGCAGAGCUCAACACAGGGUGCCAAAGUGGCUCUUGCUAGACUUCC [C18G G22C G33C G35U G44U],0.02
17,GGCAGAGCUCAACACAGAGUGGCAAAGUGGCUGUGACUAGUCUGCC [C18A G36A A41U],0.3
18,GGCAGAGCUCAACACAGGGUGGCAAGGUGGCUGUGGCUAGGCUGCC [C18G A26G A41G],0.02
